The entries are a selection whose mix differs from that of the whole data set. The list includes weakly bound sequences.
Assays:
Assay in all cases: protein-binding microarray (PBM)
Conditions in all cases: PBM: ~300 nM protein, 6 mM HEPES pH 7.8, 80 mM KCl, 0.5 mM EDTA, 0.5 mM EGTA, 6% glycerol, 35 ng/ul poly-dIdC, 1% milk, 1 h, room temperature; Ap Aiptasia and Nv Nematostella (sea anemones) / Co Capsaspora / Aq Amphimedon (sponge) / Dm Drosophila / Hu human; RHD is the Rel homology domain; high values mean tight binding; most listed sequences are background and not binding sites; double strand, one strand shown
GST-Ap-NF-kB RHD = biological target: T1, GST-Ap-NF-kB RHD (UniProt A0A913YAJ5)
T1 sequence: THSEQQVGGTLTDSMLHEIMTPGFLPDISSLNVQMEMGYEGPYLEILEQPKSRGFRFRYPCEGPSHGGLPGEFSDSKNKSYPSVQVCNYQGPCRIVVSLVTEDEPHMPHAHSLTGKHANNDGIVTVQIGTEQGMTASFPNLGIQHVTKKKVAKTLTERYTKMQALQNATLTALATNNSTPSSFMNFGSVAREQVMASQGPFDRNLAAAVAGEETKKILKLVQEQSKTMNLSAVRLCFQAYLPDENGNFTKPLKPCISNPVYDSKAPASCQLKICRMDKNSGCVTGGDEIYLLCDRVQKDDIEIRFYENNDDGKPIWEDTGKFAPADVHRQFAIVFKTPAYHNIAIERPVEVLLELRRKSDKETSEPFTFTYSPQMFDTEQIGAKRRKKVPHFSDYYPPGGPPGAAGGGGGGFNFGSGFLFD

[1] = biological target: T2, GST-Nv-NF-kB (Cys allele) (UniProt E5G601)
T2 sequence: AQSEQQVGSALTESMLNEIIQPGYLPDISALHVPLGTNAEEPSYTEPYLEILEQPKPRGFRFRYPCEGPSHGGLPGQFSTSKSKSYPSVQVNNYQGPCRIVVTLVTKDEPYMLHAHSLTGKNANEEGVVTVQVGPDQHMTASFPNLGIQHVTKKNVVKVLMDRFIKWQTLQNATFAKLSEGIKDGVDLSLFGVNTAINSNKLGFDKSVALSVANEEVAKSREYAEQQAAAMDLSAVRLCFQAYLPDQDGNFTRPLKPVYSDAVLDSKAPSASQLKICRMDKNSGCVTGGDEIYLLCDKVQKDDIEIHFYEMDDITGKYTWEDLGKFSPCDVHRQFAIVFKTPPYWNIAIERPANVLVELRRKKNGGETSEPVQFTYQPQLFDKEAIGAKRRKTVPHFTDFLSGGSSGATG

GST-Co-NF-kB = biological target: T3, GST-Co-NF-kB (UniProt F1ARL5)
T3 sequence: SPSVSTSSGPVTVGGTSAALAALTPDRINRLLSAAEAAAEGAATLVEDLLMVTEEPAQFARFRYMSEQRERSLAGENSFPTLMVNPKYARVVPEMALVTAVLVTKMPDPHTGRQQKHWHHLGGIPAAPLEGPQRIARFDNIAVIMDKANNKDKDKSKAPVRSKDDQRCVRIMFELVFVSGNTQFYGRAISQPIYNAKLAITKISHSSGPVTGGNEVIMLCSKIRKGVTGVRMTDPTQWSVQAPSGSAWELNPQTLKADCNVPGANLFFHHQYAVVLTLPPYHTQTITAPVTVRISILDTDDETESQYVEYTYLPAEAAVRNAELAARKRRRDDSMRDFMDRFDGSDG

GST-Dm-Relish = biological target: T4, GST-Dm-Relish (UniProt Q94527)
T4 sequence: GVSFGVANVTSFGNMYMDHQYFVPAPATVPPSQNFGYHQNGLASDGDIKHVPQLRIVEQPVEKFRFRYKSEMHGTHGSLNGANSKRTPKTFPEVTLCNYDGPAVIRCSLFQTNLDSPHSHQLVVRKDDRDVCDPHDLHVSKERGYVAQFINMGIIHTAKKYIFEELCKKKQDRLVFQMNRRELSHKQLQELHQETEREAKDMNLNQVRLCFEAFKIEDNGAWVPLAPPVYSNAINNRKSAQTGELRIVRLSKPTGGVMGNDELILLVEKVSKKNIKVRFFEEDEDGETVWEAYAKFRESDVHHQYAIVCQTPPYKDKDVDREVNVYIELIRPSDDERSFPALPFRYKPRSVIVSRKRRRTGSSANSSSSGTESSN

GST-Aq-NF-kB = biological target: T5, GST-Aq-NF-kB (UniProt A9Y5G7)
T5 sequence: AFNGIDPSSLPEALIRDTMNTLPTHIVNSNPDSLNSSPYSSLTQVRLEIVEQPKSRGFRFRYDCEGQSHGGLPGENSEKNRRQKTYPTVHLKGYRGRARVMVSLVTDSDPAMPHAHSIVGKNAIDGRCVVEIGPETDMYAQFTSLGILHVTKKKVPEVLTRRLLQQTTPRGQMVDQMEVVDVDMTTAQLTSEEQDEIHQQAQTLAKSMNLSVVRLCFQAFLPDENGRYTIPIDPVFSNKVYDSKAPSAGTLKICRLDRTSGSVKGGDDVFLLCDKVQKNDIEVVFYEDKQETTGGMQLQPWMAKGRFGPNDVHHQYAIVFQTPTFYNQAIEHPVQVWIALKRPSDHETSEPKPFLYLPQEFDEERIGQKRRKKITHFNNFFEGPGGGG

Row | Sequence | binding signal (GST-Ap-NF-kB RHD) [z-score] | binding signal [1] [z-score] | binding signal (GST-Co-NF-kB) [z-score] | binding signal (GST-Dm-Relish) [z-score] | binding signal (GST-Aq-NF-kB) [z-score]
1 | CCGATTAACATCAAATTTCCAGCTGATGTTAATCGGGTCTTGATTCGCTTGACGCTGCTG | 0.0526 | 0.143 | -0.103 | 0.603 | 0.331
2 | CCGATTAACATCAATGTCATAGATGATGTTAATCGGGTCTTGATTCGCTTGACGCTGCTG | -0.906 | 0.12 | -0.134 | -0.431 | -0.195
3 | CCGATTAACATCAGTAAAACGATTGATGTTAATCGGGTCTTGATTCGCTTGACGCTGCTG | -0.581 | -0.559 | -0.265 | -0.133 | -0.364
4 | CCGATTAACATCATAGACATGACTGATGTTAATCGGGTCTTGATTCGCTTGACGCTGCTG | -0.599 | -0.163 | -0.674 | -0.801 | -0.466
5 | CCGATTAACATCAAGAAATTCCGTGATGTTAATCGGGTCTTGATTCGCTTGACGCTGCTG | 0.0452 | 0.746 | 0.627 | 0.863 | 1.24
6 | CCGATTAACATCAAAACCTTTTGTGATGTTAATCGGGTCTTGATTCGCTTGACGCTGCTG | -0.731 | -0.499 | 0.163 | 0.423 | -0.158
7 | CCGATTAACATCAAATTCTTTCCTGATGTTAATCGGGTCTTGATTCGCTTGACGCTGCTG | -0.34 | 0.323 | 0.171 | 0.589 | 0.141
8 | CCGATTAACATCAGATAAAAGAATGATGTTAATCGGGTCTTGATTCGCTTGACGCTGCTG | -0.424 | 0.641 | -0.0593 | -0.091 | -0.395
